Measurements taken from PMC9633759, “ATP-binding and hydrolysis of human NLRP3” (Communications Biology, 2022).

Target: the molecule itself
Assay: SEC; gel filtration of purified MBP-NLRP3 on Superose 6 10/300 GL (increase) in 20 mM HEPES pH 8.0, 150 mM NaCl, 1 mM TCEP; 4 °C stated for the mutants; self-association

| Protein | binding result |
| --- | --- |
| human MBP-NLRP3 C838S (natural protein, NLRP3, human, […], point mutant C838S; not shown: MBP, N-terminal, kept) not shown | binds |
| human MBP-NLRP3 T233S (natural protein, NLRP3, human, […], point mutant T233S; also called Walker A mutant T233S; not shown: MBP, N-terminal, kept) not shown | binds |
